From PubChem BioAssay AID651820 (National Center for Advancing Translational Sciences (NCATS), 2012)
Hit rate of the full screen: of about 340,000 compounds, about 12,000 (3.5%) were called active. The inconclusive results got no clear call from the source; some entries with a clear call stand among them for comparison. Calls come from the whole dose curve; as a rule, active = well fitted inhibition curve with a large enough effect; inconclusive = small, poorly fitted or top-dose-only effect, or another doubt; inactive = no such curve, though single readings can be large or run the other way. No potency is given beside an inconclusive call; the fits are too rough.

Test: qHTS Assay for Inhibitors of Hepatitis C Virus (HCV)
Conditions: Huh7.5.1 HCVcc-Cre (HCVcc is cell-culture hepatitis C virus) infection, luciferase reporter, 44 h; activity change, negative = inhibition: at 41.8 µM (top of the series)
Outline: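 Whole-lifecycle infectious HCVcc-Cre system; cells 1,000/well, compound then virus (~0.5 moi) added 4 h after plating, 44 h culture. Luciferase read 15 sec following 15 min substrate incubation, room temp.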
% is set by controls: 0 for no effect and ±100 for the full control effect; potency is the fitted concentration of half-maximal effect; tags give direction and shape of the fitted curve.

Compound | Potency | activity change, negative = inhibition
CCOC(=O)c1c(C)nn(-c2ccc(NC(=O)c3c(C)noc3C)cc2)c1C | inactive | 
Cc1nn(CC(=O)NCCN2CCCCC2C)c(=O)c2cc(-c3ccccc3)nn12 (configuration not stated) | inconclusive [inhibitor, single point] | 
O=C(CCn1cnc(-c2ccccc2)c1-c1ccccc1)N/N=C/c1ccccc1O | inconclusive [inhibitor, single point] | 
COc1ccc(C)cc1NC(=O)CN1C(=O)COc2ccc(S(=O)(=O)N3CCCCCC3)cc21 | inconclusive [inhibitor, single point] | 
Cc1cc(N(C)C)ccc1N=Nc1ccc2ncccc2c1 | inconclusive [inhibitor, partial curve] | 
Cc1ccc(C(=O)Nc2ccc3c(c2)OCO3)cc1S(=O)(=O)N1CCCCC1 | inconclusive [inhibitor, partial curve] | 
O=C(NC1CCCC1)c1cc(Cl)ccc1[N+](=O)[O-] | inactive | 
CCCCn1c(N)c(N(CC(C)C)C(=O)c2cc(-c3ccco3)nc3ccccc23)c(=O)[nH]c1=O | inactive | 
CCOc1ccccc1CN1CCC(n2nccc2NC(=O)C2CCCC2)CC1 | inconclusive [inhibitor, full curve, poor fit] | 
C=CCOc1c(Br)cc(CNc2ccc(NC(=O)C(C)C)cc2)cc1OCC | inconclusive [inhibitor, single point] | 
Cc1ccc(S(=O)(=O)Nc2c(C)cc(C)nc2Cl)cc1 | inactive | 
CSc1ccc(CN(C)Cc2cc(=O)oc3c(C)c(C)ccc23)cc1 | inconclusive [inhibitor, single point] | 
O=S(=O)(c1ccc(Cl)c(Cl)c1)c1snnc1-c1ccccc1 | inconclusive [inhibitor, single point] | 
COc1ccc(Cl)cc1NC(=O)Nc1ccc(C(=O)N2CCCC2)cc1 | inconclusive [inhibitor, single point] | 
CCc1ccc(NC(=O)COc2cccc(-n3cnnn3)c2)cc1 | inconclusive [inhibitor, partial curve] | 
Cc1cc(C(C)(C)C)oc1C(=O)N(CC(=O)NC1CCCC1)Cc1ccccc1 | inactive | 
O=C(Nc1ccc(N2CCCC2)cc1)c1cccc(Cl)c1Cl | inconclusive [inhibitor, partial curve] | 
CCOc1ccc(CN2CCNC(=O)C2CC(=O)NCc2cc(C)n(C)n2)cc1 (configuration not stated) | inactive | 
COc1ccc(-c2cc3ccccc3oc2=O)cc1 | inconclusive [inhibitor, single point] | 
CCCCn1c(N)c(N(CC(C)C)C(=O)c2cnc(C)cn2)c(=O)[nH]c1=O | inactive | 
C/C(=N\N1CCN(Cc2ccc(Cl)cc2)CC1)c1ccc(F)cc1 | inconclusive [inhibitor, single point] | 
c1coc(CNCCc2c[nH]c3ccccc23)c1 | inconclusive [inhibitor, single point] | 
Oc1ccccc1Oc1c(F)c(F)nc(N2CCCC2)c1F | inactive | 
COc1cccc(CNc2nc3ccccc3n2C(C)C)c1O | inconclusive [inhibitor, partial curve] | 

Compound | Potency | activity change, negative = inhibition
CCOc1ccc(/C=N/n2cc(-c3ccccc3)[nH]c2=S)cc1 | inconclusive [inhibitor, single point] | 
COc1ccc(OC)c(-c2csc(NC(=O)Cc3ccccc3F)n2)c1 | inconclusive [inhibitor, partial curve] | 
COc1ccc2cc(CN(C(=O)Nc3ccccc3)C3CCCC3)c(=O)[nH]c2c1 | inconclusive [inhibitor, partial curve] | 
CC1Cc2ccccc2N1CC(=O)NCc1ccccc1Cl (configuration not stated) | inconclusive [inhibitor, partial curve] | 
S=P(NCCSCc1ccccc1)(N1CC1)N1CC1 |  | inconclusive: -31.2% [inhibitor]
Cc1cc(OCC(=O)Nc2ccncc2)cc(C)c1Br | inconclusive [inhibitor, partial curve] | 
O=C(COc1cccc2c1CCN(Cc1ccc(Cl)cc1)C2=O)N1CCOCC1 | inconclusive [inhibitor, single point] | 
Cc1ccc(S(=O)(=O)N2CCOCC2)cc1C(=O)N(C)CCOc1ccc(Cl)cc1 | inconclusive [inhibitor, single point] | 
CCCCCCCC(=O)NNC(=O)c1c(O)c2ccccc2n(CCC)c1=O | inconclusive [inhibitor, single point] | 
O=C1c2ccccc2C(=O)c2c1ccc1c(=O)n(-c3ccccc3)[nH]c21 | inconclusive [inhibitor, single point] | 
CCCNC(=O)c1c(N)n(-c2cccc(OC)c2)c2nc3ccccc3nc12 | inconclusive [inhibitor, single point] | 
Cc1ccc(NC(=O)CN(C)CC(=O)Nc2cccc(F)c2)cc1S(=O)(=O)N1CCCCCC1 | inconclusive [inhibitor, partial curve] | 
COc1cccc2c3c(c(C)nc12)CCN3c1ccccc1 | inconclusive [inhibitor, partial curve] | 
CCOC(=O)c1ccc(Nc2nc(C(=O)OCC)nc3ccccc23)cc1 | inconclusive [inhibitor, single point] | 
CCC(=O)Nc1cccc(-n2nnnc2SCC(=O)c2ccc(C)c(C)c2)c1 | active: 11.2 µM | 
CC(=O)Nc1nonc1-c1nc2ccccc2n1Cc1ccccc1 | inconclusive [inhibitor, partial curve] | 
O=C(O)C1CC(c2cccc(Br)c2)=NO1 (configuration not stated) | inactive | 
COC(=O)[C@@H](NC(=O)N1CCC(Cc2ccccc2)CC1)C(C)C | inactive | 
Cc1ccc(C)c(CN2C(=O)c3ccccc3S(=O)(=O)c3ccc(C(=O)N4CCN(C)CC4)cc32)c1 | inconclusive [inhibitor, single point] | 
CN(C)c1ccc(CNc2nc(-c3ccccc3)nn2S(C)(=O)=O)cc1 | inactive | 
Cc1ccccc1C(=O)NNC(=S)NC(=O)c1ccc(Cl)cc1Cl | active: 0.562 µM | 
COC(=O)Nc1sc2c(c1C(N)=O)CCC(C)C2 (configuration not stated) | inconclusive [inhibitor, full curve, poor fit] | 
COc1ccccc1CC(=O)Nc1ccc(S(=O)(=O)N2CC(C)CC(C)C2)cc1 (configuration not stated) | inactive | 
Cc1ccc(C(=O)Nc2cccc(C(=O)O)c2)cc1 | inactive | 

Compound | Potency | activity change, negative = inhibition
CCCOc1ccccc1C1CC(=O)Nc2cc3c(cc21)OCCO3 (configuration not stated) | active: 2.51 µM | 
O=S(=O)(c1ccccc1)N(c1ccccc1)S(=O)(=O)c1ccccc1 | inconclusive [inhibitor, single point] | 
COc1ccc(NCc2nnc(SCC(=O)NCc3ccccc3)n2-c2ccccc2OC)cc1 | inconclusive [inhibitor, single point] | 
COC(=O)CNC(c1ccccc1)c1cc(C)ccc1NC(=O)c1cccc(Cl)c1 (configuration not stated) | inconclusive [inhibitor, single point] | 
COc1ccccc1Nc1nc2ccc(C)cc2n2cnnc12 | active: 6.31 µM | 
O=C(OCC1OC(n2ccc(=O)[nH]c2=O)C2OC12)c1ccccc1 (configuration not stated) | inactive | 
O=C(COc1coc(CN2CCc3ccccc3C2)cc1=O)Nc1cccc([N+](=O)[O-])c1 | inconclusive [inhibitor, single point] | 
Fc1ccc(N2CCN(Cc3cnc(Cl)s3)CC2)cc1 | inactive | 
O=S(=O)(c1cc(Cl)ccc1Cl)N1CCCC1 | inconclusive [inhibitor, single point] | 
Nc1c(Cl)ncnc1NCc1ccccc1 | inconclusive [inhibitor, single point] | 
Cc1noc(C)c1COc1ccccc1C(=O)N(C)CC(=O)Nc1ccc(F)c(F)c1F | inconclusive [inhibitor, single point] | 
Cn1c(=O)cc(-c2ccccc2)c2ccccc21 | inconclusive [inhibitor, partial curve] | 
COc1cccc(OC)c1C(=O)OCC(=O)N(c1ccccc1)C1CCCCC1 | inconclusive [inhibitor, partial curve] | 
CCNc1nc(NCC)nc(Nn2cnnc2)n1 | inconclusive [inhibitor, partial curve] | 
COC(=O)c1ccc2c(=O)[nH]c(COC(=O)c3c(-c4ccccc4)noc3C)nc2c1 | inconclusive [inhibitor, partial curve] | 
COc1cccc(CN2CCC(n3nccc3NC(=O)CCOc3ccccc3)CC2)c1 | inactive | 
Cc1nc2ccc(Br)cc2c2c1CC(CBr)O2 (configuration not stated) | inconclusive [inhibitor, partial curve] | 
O=C(Cn1nc(Cl)nc1Cl)c1ccccc1 | inactive | 
CC(C)c1ccc(NC(=S)NCc2cccs2)cc1 | inconclusive [inhibitor, single point] | 
CCCc1cc(=O)n2nc(N3CCC(C(=O)N4CCN(c5cccc(OC)c5)CC4)CC3)sc2n1 | inconclusive [inhibitor, single point] | 
CCOc1ccc(NC(=O)c2csc3c2CCCC3)cc1 | inconclusive [inhibitor, single point] | 
O=C(CCC(=O)N(c1ccc(F)cc1)C(C(=O)NC1CCCC1)c1ccncc1)Nc1cccnc1 (configuration not stated) | inactive | 
O=S(=O)(NCc1ccccc1Cl)c1cccs1 | inactive | 
COC(=O)c1ccccc1NC(=O)CSc1nnc(CNS(=O)(=O)c2ccc(C)cc2)n1C | inconclusive [inhibitor, single point] | 
